Among all 370,000 compounds or so, about 150 (0.041%) were called active. This list was built around the results that the source calls inconclusive (neither active nor inactive); the mix of calls is not that of the screen. Calls come from the whole dose curve; as a rule, active = well fitted inhibition curve with a large enough effect; inconclusive = small, poorly fitted or top-dose-only effect; inactive = flat fitted curve, though single readings scatter. Potencies of inconclusive entries are left out as doubtful fits.
target: Beta-lactamase (Escherichia coli (strain K12)) (UniProt P00811); experiment: qHTS Inhibitors of AmpC Beta-Lactamase (assay with detergent); conditions: AmpC hydrolysis of nitrocefin, absorbance 480 nm, 0.01% Triton; series mostly up to 114 µM; note: nearly all actives have a fitted effect of over 25% in size
UniProt P00811, sequence (P00811 whole entry, looked up): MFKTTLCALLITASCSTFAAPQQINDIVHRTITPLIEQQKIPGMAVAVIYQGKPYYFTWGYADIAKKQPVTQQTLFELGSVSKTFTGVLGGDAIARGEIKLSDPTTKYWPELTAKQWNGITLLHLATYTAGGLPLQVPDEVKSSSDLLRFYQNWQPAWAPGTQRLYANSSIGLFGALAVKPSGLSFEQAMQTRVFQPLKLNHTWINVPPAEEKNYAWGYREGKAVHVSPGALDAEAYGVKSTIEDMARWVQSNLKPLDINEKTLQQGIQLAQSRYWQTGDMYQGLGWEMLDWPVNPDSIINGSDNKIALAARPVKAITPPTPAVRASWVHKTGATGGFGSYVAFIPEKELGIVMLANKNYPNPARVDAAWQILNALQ
In short: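 20 mM phosphate pH 7.0 + 0.01% (detergent screen) or 0.0001% Triton X-100; 5.3 nM AmpC reagent; cpd preinc 15 min RT; nitrocefin (800 uM stock) to start; A480 q20 s × 4 min; Activity was normalised to no-enzyme and no-compound control wells.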
Potency is the fitted concentration of half-maximal effect; tags give direction and shape of the fitted curve.

Row | Structure (SMILES) | Potency
1 | CN(c1ccc(C(=O)NCCSC(C)(C)C)cc1)S(C)(=O)=O | inactive
2 | CC(NC(=O)Cn1c(=O)[nH]c2ccsc2c1=O)C12CC3CC(CC(C3)C1)C2 (stereo not drawn) | inconclusive [inhibitor, full curve, poor fit]
3 | O=C(Nc1ccc2nc(SCC(=O)N3CCc4ccccc43)sc2c1)c1ccc(F)cc1 | inactive
4 | CC(=O)N1CCN(C(=O)c2cc(S(=O)(=O)N(C)c3ccc(F)cc3)ccc2Cl)CC1 | inconclusive [inhibitor, full curve, poor fit]
5 | Cc1ccccc1NC(=O)c1ccco1 | inactive
6 | O=C(O)c1cc(-c2ccc3c(c2)OCO3)nc2ccc(Cl)cc12 | inactive
7 | N#Cc1ccc(OC(=O)C2CCN(C3=NS(=O)(=O)c4ccccc43)CC2)cc1 | inconclusive [inhibitor, full curve, poor fit]
8 | CC1CC(C)CN(C(=O)COC(=O)c2ccc(Cl)nc2)C1 (stereo not drawn) | inconclusive [inhibitor, partial curve, poor fit]
9 | O=C(NCc1cccc(Cl)c1)c1ccc(NC(=O)N2CC3CCCN3c3ccccc32)cc1 (stereo not drawn) | inconclusive [inhibitor, single point]
10 | CCOC(=O)N1CCN(C(=O)c2cccc(NS(=O)(=O)c3ccc(F)c(F)c3)c2)CC1 | inactive
11 | CCOC(=O)C1(CCOc2ccccc2)CCN(Cc2cccc(OCCO)c2)CC1 | inconclusive [inhibitor, full curve, poor fit]
12 | Cc1cccc(OCc2nnc(SCC(=O)N(C(C)C)C(C)C)n2Cc2ccco2)c1C | inconclusive [inhibitor, full curve]
13 | CCN(CC)C(=O)c1ccc(NC(=O)c2cccc(C(F)(F)F)c2)cc1 | inconclusive [inhibitor, full curve]
14 | Cc1ccc2nsnc2c1S(=O)(=O)NCc1ccc2c(c1)OCO2 | inconclusive [inhibitor, partial curve, poor fit]
15 | O=C1CN(C(=O)CCN2CCOCC2)C(c2ccccc2)c2cc(Br)ccc2N1 (stereo not drawn) | inconclusive [inhibitor, full curve, poor fit]
16 | Cc1ccc(Nc2nc(N)c3ccccc3n2)cc1Cl | inactive
17 | Cc1ccc(S(=O)(=O)NC(C)C(=O)Nc2ccc3c(c2)OCO3)cc1 (stereo not drawn) | inactive
18 | CCC(CC)N1CCN(CC2CC=CCC2)CC1 (stereo not drawn) | inconclusive [inhibitor, partial curve, poor fit]
19 | CC(=O)Oc1ccc(-c2csc(Nc3cccnc3)n2)cc1 | inconclusive [inhibitor, single point]
20 | O=S(=O)(NCc1ccc2c(c1)OCO2)c1cccc(S(=O)(=O)N2CCOCC2)c1 | inconclusive [inhibitor, full curve, poor fit]
21 | Fc1ccc(Cn2cccc2C2=NC(c3ccccc3)CO2)cc1 (stereo not drawn) | inconclusive [inhibitor, single point]
22 | O=C1CC(c2ccco2)CC(O)=C1C=Nc1cc(Cl)ccc1Cl (stereo not drawn) | inconclusive [inhibitor, full curve]
23 | COc1ccc(NC(=O)c2ccccc2NC(=O)CSc2ccc(C)cc2)cc1 | inconclusive [inhibitor, single point]

Row | Structure (SMILES) | Potency
24 | Cc1c(/C=N/NC(=O)c2cccnc2)c2ccccc2n1Cc1ccccc1 | inactive
25 | COC(=O)C1=C(c2ccccc2)c2ccccc2S(=O)(=O)N1CC(=O)Nc1ccc(F)c(F)c1 | inactive
26 | CCOc1ccccc1NC(=O)CN(C)S(=O)(=O)c1ccc(OC)c(C)c1 | inconclusive [inhibitor, full curve, poor fit]
27 | O=C(OCC(=O)N1CCCc2ccccc21)c1ccccc1[N+](=O)[O-] | inactive
28 | CN(c1ccc(C(=O)NCc2cccnc2)cc1)S(C)(=O)=O | inconclusive [inhibitor, full curve, poor fit]
29 | COc1ccccc1Nc1nc(C)cc(C)c1C(N)=O | inconclusive [inhibitor, full curve, poor fit]
30 | O=C1CCC(=O)N1OCCOc1ccc2c(c1)CCC2 | inconclusive [inhibitor, full curve, poor fit]
31 | COc1ccccc1NC(=O)/C=C/c1cc([N+](=O)[O-])ccc1OC(F)F | inconclusive [inhibitor, partial curve]
32 | C/C(=N/NC(=O)c1ccccn1)c1ccco1 | inactive
33 | O=C(C[n+]1cc(-c2ccc(Cl)c(Cl)c2)n2c1CCC2)OCc1ccccc1 | inactive
34 | COc1cccc(OC)c1C(=O)Nc1cccc(-c2ccc(N3CCOCC3)nn2)c1 | inconclusive [inhibitor, partial curve, poor fit]
35 | O=C(c1ccc(Cl)cc1)C12CN3CN(CN(C3)C1)C2 | inconclusive [inhibitor, partial curve, poor fit]
36 | Cc1cccc(NC(=O)Cn2c(=O)n(CC3CCCO3)c(=O)c3ccccc32)c1 (stereo not drawn) | inconclusive [inhibitor, full curve, poor fit]
37 | COc1ccc(Oc2c(-c3ccc(O)cc3O)n[nH]c2C)cc1 | inactive
38 | O=C1COc2ccc(N3C(=O)C=CC3=O)cc2N1 | inconclusive [inhibitor, partial curve]
39 | Cc1ccc(S(=O)(=O)Nc2nc3ccccc3nc2NCc2ccco2)cc1C | inconclusive [inhibitor, single point]
40 | CCOc1ccccc1N(CC(=O)Nc1ccccc1C(=O)NCc1ccco1)S(C)(=O)=O | inconclusive [inhibitor, single point]
41 | Cn1c(CCC(=O)OCC(=O)NCc2ccccc2Cl)nc(=O)c2ccccc21 | inconclusive [inhibitor, partial curve, poor fit]
42 | O=c1[nH]c(-c2ccccn2)nc2ccccc12 | inconclusive [inhibitor, full curve, poor fit]
43 | Cc1onc(-c2ccccc2Cl)c1C(=O)Oc1cccc2cccnc12 | inconclusive [inhibitor, full curve, poor fit]
44 | CCc1cc(=O)oc2c3c(cc(OCC(=O)NCc4ccccn4)c12)OC(C)(C)CC3 | inconclusive [inhibitor, full curve, poor fit]
45 | Cc1ccc(NC(=O)N2CCCCCC2)cc1 | inactive
46 | CC(OC(=O)/C=C/c1ccc2ccccc2n1)C(=O)N(C)c1ccccc1 (stereo not drawn) | inconclusive [inhibitor, partial curve, poor fit]

Row | Structure (SMILES) | Potency
47 | Cc1ccc(NC(=O)CN2C(=O)NC(Cc3ccccc3)C2=O)cc1 (stereo not drawn) | inconclusive [inhibitor, full curve, poor fit]
48 | COc1ccc(C2C(C(N)=O)=C(C)Nc3nc(-c4ccccc4)nn32)cc1OC (stereo not drawn) | inconclusive [inhibitor, partial curve, poor fit]
49 | NC(N)=N/N=C/c1ccc(Br)cc1 | inactive
50 | CCSc1nnc(NC(=O)c2ccc(Br)s2)s1 | inactive
51 | CCOc1ccc(C(=O)NCCCn2ccnc2)cc1 | inconclusive [inhibitor, single point]
52 | Cc1cccc(N2C(=O)NC(=O)/C(=C/c3ccc(N4CCOCC4)cc3)C2=O)c1 | inconclusive [inhibitor, full curve, poor fit]
53 | O=C(NCC(=O)N1CCN(c2cccc(Cl)c2)CC1)c1ccc(Br)o1 | inconclusive [inhibitor, partial curve]
54 | CC(C)C(NC(=O)c1cccc(S(=O)(=O)N2CCOCC2)c1)C(=O)NCc1ccc(Cl)cc1 (stereo not drawn) | inactive
55 | CCOC(=O)c1ccc(NS(=O)(=O)c2cc(-c3onc(C)c3C)ccc2C)cc1 | inconclusive [inhibitor, single point]
56 | O=C(CSc1nc2ccccc2c(=O)n1-c1ccc(F)cc1)Nc1ccc(Cl)c(S(=O)(=O)N2CCOCC2)c1 | inconclusive [inhibitor, partial curve, poor fit]
57 | O=C(Nc1ccc2c(c1)OCCO2)c1ccc(NC(=O)C2CCCO2)cc1 (stereo not drawn) | inconclusive [inhibitor, partial curve]
58 | c1ccc(CN2CCN(c3ncnc4nc[nH]c34)CC2)cc1 | inconclusive [inhibitor, full curve]
59 | O=C(Nc1ccccc1)Nc1ccc2ccccc2c1 | inactive
60 | CCc1cccc(NC(=O)Cn2c(=O)c3cccn3c3ccccc32)c1 | inactive
61 | COC(=O)c1cc2c(cc1NC(=O)c1cnn(-c3ccc(C)cc3)c1-n1cccc1)OCO2 | inactive
62 | COc1ccc(C2C(C(=O)N3CCC(C)CC3)c3ccccc3C(=O)N2C)cc1 (stereo not drawn) | inconclusive [inhibitor, full curve, poor fit]
63 | CCC(C)(NC(=O)Cc1c[nH]c2ccccc12)C(=O)NC1CCCCC1 (stereo not drawn) | inconclusive [inhibitor, full curve, poor fit]
64 | COc1ccc(CC(=O)Nc2cccc(-c3nnc(-c4cccc(C)c4)o3)c2)cc1OC | inconclusive [inhibitor, partial curve]
65 | CCOCc1cc(C)[nH]c(=O)c1C#N | inconclusive [inhibitor, partial curve]
66 | O=C(COc1ccc(Cl)cc1)N1CCN(c2ncccn2)CC1 | inconclusive [inhibitor, full curve, poor fit]
67 | Nc1nc2ccc(O)cc2s1 | inactive
68 | Clc1ccc(OCCN2CCN(c3ncnc4sccc34)CC2)cc1 | inactive

Source: PubChem BioAssay AID485294 (National Center for Advancing Translational Sciences (NCATS), 2010)
